This is one part of the list.
Biological target: T1, MBP-FoxP1dN (Mus musculus, UniProt P58462 326-579)
T1 sequence: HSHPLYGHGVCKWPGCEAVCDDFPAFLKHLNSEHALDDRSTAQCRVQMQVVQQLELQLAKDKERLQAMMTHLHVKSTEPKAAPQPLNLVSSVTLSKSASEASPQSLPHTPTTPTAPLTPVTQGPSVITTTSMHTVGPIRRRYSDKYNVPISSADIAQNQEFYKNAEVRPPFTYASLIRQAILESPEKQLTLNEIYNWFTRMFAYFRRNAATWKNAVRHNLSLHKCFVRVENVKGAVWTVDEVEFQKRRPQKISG
Test: PD-seq (MBP pull-down with sequencing); 20 mM Tris-HCl pH 7.5, 100 mM NaCl, 1.5 mM MgCl2, 0.4 uM protein, 0.1 uM dsDNA library, 30 min, room temperature, amylose pull-down; high values mean tight binding
Conditions: protein: recombinant; tags: His6-MBP; chain copies: 2; dsDNA, one strand shown
How it was run: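 A degenerate double-stranded DNA library, filled in with Klenow, was added at 0.1 µM to 0.4 µM His6-MBP-tagged mouse FoxP3 or FoxP1 fragment lacking the N-terminus, expressed in E. coli. Incubation lasted 30 min at room temperature in Tris pH 7.5 buffer with NaCl and MgCl2, after which complexes were collected on amylose resin, washed three times, digested with proteinase K to free the DNA, barcoded by PCR and sequenced by Illumina. Binding is the pooled-replicate reads-per-million enrichment of pull-down over input.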

Row | Sequence | binding signal
1 | GATGATTGTTCTCCCAGCTGATGAATTGTCCAAATCGAGTAAACAAATTTTCCTAATCTTTCTGTTCAAGCGCCATCTAC | 1.14 RPM ratio (pull-down/input)
2 | GATGATTGTTCTCCCAGCTGATGAATTGCCCTTGTCGAGTAAACAAATTTTCCTAATCTTTCTGTTCAAGCGCCATCTAC | 0.89 RPM ratio (pull-down/input)
3 | GATGATTGTTCTCCCAGCTGATGAATTGAATGCATCGAGTAAACAAATTTTCCTAATCTTTCTGTTCAAGCGCCATCTAC | 1.44 RPM ratio (pull-down/input)
4 | GATGATTGTTCTCCCAGCTGATGAATTCCGACACTCGAGTAAACAAATTTTCCTAATCTTTCTGTTCAAGCGCCATCTAC | 0.88 RPM ratio (pull-down/input)
5 | GATGATTGTTCTCCCAGCTGATGAATTTGCCATGTCGAGTAAACAAATTTTCCTAATCTTTCTGTTCAAGCGCCATCTAC | 0.845 RPM ratio (pull-down/input)
6 | GATGATTGTTCTCCCAGCTGATGAATTATAAAAGTCGAGTAAACAAATTTTCCTAATCTTTCTGTTCAAGCGCCATCTAC | 0.941 RPM ratio (pull-down/input)
7 | GATGATTGTTCTCCCAGCTGATGAATTTCGTAGGTCGAGTAAACAAATTTTCCTAATCTTTCTGTTCAAGCGCCATCTAC | 0.71 RPM ratio (pull-down/input)
8 | GATGATTGTTCTCCCAGCTGATGAATTTAATGATTCGAGTAAACAAATTTTCCTAATCTTTCTGTTCAAGCGCCATCTAC | 0.975 RPM ratio (pull-down/input)
9 | GATGATTGTTCTCCCAGCTGATGAATTATTGCGCTCGAGTAAACAAATTTTCCTAATCTTTCTGTTCAAGCGCCATCTAC | 1.22 RPM ratio (pull-down/input)
10 | GATGATTGTTCTCCCAGCTGATGAATTTTGACATTCGAGTAAACAAATTTTCCTAATCTTTCTGTTCAAGCGCCATCTAC | 1.03 RPM ratio (pull-down/input)
11 | GATGATTGTTCTCCCAGCTGATGAATTGGAATGGTCGAGTAAACAAATTTTCCTAATCTTTCTGTTCAAGCGCCATCTAC | 0.839 RPM ratio (pull-down/input)
12 | GATGATTGTTCTCCCAGCTGATGAATTGTCCGATTCGAGTAAACAAATTTTCCTAATCTTTCTGTTCAAGCGCCATCTAC | 1.02 RPM ratio (pull-down/input)
13 | GATGATTGTTCTCCCAGCTGATGAATTGGCCAGATCGAGTAAACAAATTTTCCTAATCTTTCTGTTCAAGCGCCATCTAC | 0.791 RPM ratio (pull-down/input)
14 | GATGATTGTTCTCCCAGCTGATGAATTGCCCTCATCGAGTAAACAAATTTTCCTAATCTTTCTGTTCAAGCGCCATCTAC | 0.955 RPM ratio (pull-down/input)
15 | GATGATTGTTCTCCCAGCTGATGAATTGCTTATTTCGAGTAAACAAATTTTCCTAATCTTTCTGTTCAAGCGCCATCTAC | 1.62 RPM ratio (pull-down/input)
16 | GATGATTGTTCTCCCAGCTGATGAATTCGAAAGCTCGAGTAAACAAATTTTCCTAATCTTTCTGTTCAAGCGCCATCTAC | 0.808 RPM ratio (pull-down/input)

Row | Sequence | binding signal
17 | GATGATTGTTCTCCCAGCTGATGAATTAAATGAATCGAGTAAACAAATTTTCCTAATCTTTCTGTTCAAGCGCCATCTAC | 0.923 RPM ratio (pull-down/input)
18 | GATGATTGTTCTCCCAGCTGATGAATTACGGGAGTCGAGTAAACAAATTTTCCTAATCTTTCTGTTCAAGCGCCATCTAC | 0.854 RPM ratio (pull-down/input)
19 | GATGATTGTTCTCCCAGCTGATGAATTCATCCCGTCGAGTAAACAAATTTTCCTAATCTTTCTGTTCAAGCGCCATCTAC | 0.862 RPM ratio (pull-down/input)
20 | GATGATTGTTCTCCCAGCTGATGAATTACAGTATTCGAGTAAACAAATTTTCCTAATCTTTCTGTTCAAGCGCCATCTAC | 1.38 RPM ratio (pull-down/input)
21 | GATGATTGTTCTCCCAGCTGATGAATTGAGCGCTTCGAGTAAACAAATTTTCCTAATCTTTCTGTTCAAGCGCCATCTAC | 0.833 RPM ratio (pull-down/input)
22 | GATGATTGTTCTCCCAGCTGATGAATTTGTCCTATCGAGTAAACAAATTTTCCTAATCTTTCTGTTCAAGCGCCATCTAC | 1.06 RPM ratio (pull-down/input)
23 | GATGATTGTTCTCCCAGCTGATGAATTGAGCATTTCGAGTAAACAAATTTTCCTAATCTTTCTGTTCAAGCGCCATCTAC | 1.07 RPM ratio (pull-down/input)
24 | GATGATTGTTCTCCCAGCTGATGAATTAGAGTTCTCGAGTAAACAAATTTTCCTAATCTTTCTGTTCAAGCGCCATCTAC | 0.836 RPM ratio (pull-down/input)
25 | GATGATTGTTCTCCCAGCTGATGAATTGCCATTTTCGAGTAAACAAATTTTCCTAATCTTTCTGTTCAAGCGCCATCTAC | 1.18 RPM ratio (pull-down/input)
26 | GATGATTGTTCTCCCAGCTGATGAATTATAACGTTCGAGTAAACAAATTTTCCTAATCTTTCTGTTCAAGCGCCATCTAC | 1.11 RPM ratio (pull-down/input)
27 | GATGATTGTTCTCCCAGCTGATGAATTGATGCTTTCGAGTAAACAAATTTTCCTAATCTTTCTGTTCAAGCGCCATCTAC | 1.62 RPM ratio (pull-down/input)
28 | GATGATTGTTCTCCCAGCTGATGAATTGGTGCCTTCGAGTAAACAAATTTTCCTAATCTTTCTGTTCAAGCGCCATCTAC | 0.942 RPM ratio (pull-down/input)
29 | GATGATTGTTCTCCCAGCTGATGAATTGGGACCTTCGAGTAAACAAATTTTCCTAATCTTTCTGTTCAAGCGCCATCTAC | 0.829 RPM ratio (pull-down/input)
30 | GATGATTGTTCTCCCAGCTGATGAATTTGTGAATTCGAGTAAACAAATTTTCCTAATCTTTCTGTTCAAGCGCCATCTAC | 1.14 RPM ratio (pull-down/input)
31 | GATGATTGTTCTCCCAGCTGATGAATTAGTAGATTCGAGTAAACAAATTTTCCTAATCTTTCTGTTCAAGCGCCATCTAC | 1.02 RPM ratio (pull-down/input)
32 | GATGATTGTTCTCCCAGCTGATGAATTAGGTACATCGAGTAAACAAATTTTCCTAATCTTTCTGTTCAAGCGCCATCTAC | 1.09 RPM ratio (pull-down/input)
